# Source: PubChem BioAssay AID485344 (National Center for Advancing Translational Sciences (NCATS), 2010)
# About 6,900 (2%) of roughly 340,000 compounds were called active. Rule as the data show it: active = inhibition above about 30%; inactive = below that, where a call was filed. The list shows a part of the results, in another mix than the full data. The source gives no active or inactive call for entries shown without one.
# Target: D(2) dopamine receptor (Homo sapiens) (UniProt P14416)
# Assay: HTS Assay for Allosteric Antagonists of the Human D2 Dopamine Receptor: Primary Screen for Antagonists; also: 0% is about no effect
# Conditions: HEK293 TREx D2 cells, calcium flux, dopamine EC80; at 10 µM; stronger effect = higher value
# In short: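 Overnight-induced (tetracycline, 30 C) HEK293 T-REx cells carrying force-coupled D2 receive a no-wash calcium dye, then compound, then EC80 dopamine at 180 s; signals are read kinetically throughout.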
# UniProt P14416, sequence (P14416 whole entry, looked up): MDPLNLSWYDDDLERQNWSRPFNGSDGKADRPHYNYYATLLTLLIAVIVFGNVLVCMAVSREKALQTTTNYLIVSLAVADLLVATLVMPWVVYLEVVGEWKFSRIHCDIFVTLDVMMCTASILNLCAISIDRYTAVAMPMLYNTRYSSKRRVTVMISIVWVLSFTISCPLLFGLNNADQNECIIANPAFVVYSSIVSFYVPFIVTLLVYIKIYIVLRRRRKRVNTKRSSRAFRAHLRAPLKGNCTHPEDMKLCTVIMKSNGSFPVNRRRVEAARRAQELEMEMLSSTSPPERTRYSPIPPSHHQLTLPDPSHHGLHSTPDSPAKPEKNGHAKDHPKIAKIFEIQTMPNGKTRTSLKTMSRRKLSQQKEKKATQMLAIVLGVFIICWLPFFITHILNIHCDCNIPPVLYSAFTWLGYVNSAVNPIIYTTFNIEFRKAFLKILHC
row,Compound,inhibition
1,CCN(CC)CCNC(=O)c1cc2c(=O)n(C)c3ccccc3c2n1C,active: 37%
2,COc1ccc(C(=O)Nc2nnc(C)s2)cc1,1.08%
3,CC(C)Cn1c(=O)c2ccccc2n2c(CCC(=O)N3CCN(c4ccccc4)CC3)nnc12,-19.8%
4,CCCCOC(=O)CSc1nnc(-c2ccc(C)cc2)o1,-4.33%
5,CC(C)c1ccc(C2c3c(-c4ccccc4O)n[nH]c3C(=O)N2Cc2ccncc2)cc1 (stereo unspecified),-18.3%
6,COc1cc(OC)cc(C(=O)Nc2ccc3nc(Nc4cccc(C(F)(F)F)c4)cc(C)c3c2)c1,-5.94%
7,CCN(CC)C(=O)C1CCN(c2nnc(C)c3c(C)n(-c4ccc(Cl)cc4)nc23)CC1,-10.3%
8,C#CCn1c(C2CC(=O)N(c3ccc(OCC)cc3)C2)nc2ccccc21 (stereo unspecified),-7.18%
9,Cc1ccc(C)c(N2CCN(CCCNC(=O)Cn3cc4c(n3)CCCCC4)CC2)c1,active: 65%
10,CCCOc1ccc(CNC(=O)C2CCCN(c3nc4c(C)cc(C)cc4s3)C2)cc1 (stereo unspecified),1.61%
11,O=C(NCc1ccc(F)cc1)c1cnc(N2CCCCC2)c2ccccc12,10.1%
12,COc1ccc(NC(=O)Cn2c(=O)n(-c3cccc(C(F)(F)F)c3)c(=O)c3sccc32)cc1,-3.24%
13,Cc1[nH]c2ccccc2c1C1(O)C(=O)N(Cc2ccccc2Cl)c2ccccc21 (stereo unspecified),14%
14,CCC1CN(C(=O)Nc2ccc(Br)cc2F)c2ccccc2S1 (stereo unspecified),8.42%
15,CCOc1ccc(OCC)c(NC(=O)CCc2nc3cccnc3n2-c2ccccc2)c1,-2.02%
16,COc1ccccc1N1CCN(C(=O)CSc2n[nH]c(-c3ccccc3Cl)n2)CC1,-6.6%
17,O=C(NCC(c1ccc(Cl)cc1)N1CCCCC1)c1ccccc1F (stereo unspecified),5.72%
18,COC(=O)C(NC(=O)CCc1c(C)nc2c(c(C)nn2-c2ccccc2)c1C)C(C)C (stereo unspecified),-8.96%
19,CCc1ccc(S(=O)(=O)Nc2ccc(-c3ccc(N4CCCC4)nn3)cc2)cc1,-15.5%
20,Cc1ccccc1NC(=O)[C@H](CSCc1ccccc1)N1Cc2ccccc2C1=O,13.9%
21,Cc1nn(-c2ccc(N3CCCC3)nn2)c(C)c1CCC(=O)N1CCN(c2ccccc2)CC1,5.35%
22,CCN(Cc1ccccc1)C(=O)c1nn(-c2ccc(OC)cc2)c(=O)c2c1c1ccccc1n2C,-6.31%
23,COc1ccc(CN2CCC(n3nccc3NC(=O)c3ccc4c(c3)OCO4)CC2)cc1C,active: 44.9%
24,COC(=O)c1ccc(C(=O)OC)c(NC(=O)c2cnn3c(C(F)F)cc(-c4ccccc4)nc23)c1,-14.6%

row,Compound,inhibition
1,CC(CCN1CCN(c2ccccn2)CC1)c1ccccc1 (stereo unspecified),active: 62.7%
2,COc1ccc(CC(C)N2CCN(Cc3ccccc3)CC2)c(OC)c1 (stereo unspecified),active: 83%
3,Cc1ccccc1NC(=O)Cn1c(=O)n(Cc2ccccc2)c(=O)c2sc3ccccc3c21,9.43%
4,CCCSc1nnc2[nH]c(=O)cc(C)n12,-3.36%
5,O=C(Nc1nnc(S(=O)(=O)Nc2ccccc2)s1)C1CCCCC1,12.7%
6,CCOC(=O)Cn1c(=O)n(CC2CCCO2)c2nc(-c3ccc(C(C)C)cc3)nc(C(N)=O)c21 (stereo unspecified),-15.9%
7,COc1cc2c(-c3cc(Br)ccc3O)nc3c(c(C)nn3-c3ccccc3)c2cc1OC,-0.245%
8,O=C(NCc1ccc2c(c1)OCO2)C1CCCN1C(=O)Nc1ccccc1 (stereo unspecified),active: 66%
9,Cc1ccccc1N(C)S(=O)(=O)c1nnc(NC(=O)C(C)C)s1,-2.04%
10,COc1ccc(NCC(=O)N/N=C/c2c(C)nn(Cc3ccccc3)c2Cl)cc1,active: 31.3%
11,CCCN(c1ccc(C(C)C)cc1)S(=O)(=O)c1ccc2c(c1)oc(=O)n2CC(=O)OCC,13.1%
12,COc1cccc(Cn2c(CNS(=O)(=O)c3ccc(C(C)(C)C)cc3)nc3cccnc32)c1,24.1%
13,COc1ccc(-n2c(=O)c3ccccc3n(Cc3cccc(C)c3)c2=O)cc1,-9.2%
14,COc1ccc(-c2nc(CNC(=O)Nc3ccccc3)c(C)o2)cc1,-12.4%
15,CCC(C)NC(=O)Cn1c(=O)n(-c2ccc(C)c(C)c2)c(=O)c2c3c(sc21)CCCCC3 (stereo unspecified),-7.54%
16,COc1ccc(OC)c(NC(=O)c2cc(S(=O)(=O)NCCc3ccc(Cl)cc3)ccc2F)c1,8.67%
17,CCOc1ccc(OCC)c(NC(=O)c2ccc(-c3ccccc3)s2)c1,-2.01%
18,Cc1nc2nc(SCC(=O)NC3CCC(C)CC3)nn2c(C)c1Cc1ccccc1 (stereo unspecified),6.69%
19,CCCCc1nn2c(=O)cc(COC(=O)C3CCCCC3)nc2s1,-0.864%
20,COC(=O)c1ccc(-c2nc3cc(NC(C)=O)ccc3o2)cc1,6.66%
21,CCOc1ccc(CCNC(=O)c2sc3ncccc3c2-n2cccc2)cc1OCC,-14.9%
22,Cc1cccc(NC(=O)C(=O)NCC(c2cccnc2)N2CCc3ccccc3C2)c1C (stereo unspecified),9.66%
23,CCOc1ccc(NC(=O)c2ccc(F)c(S(=O)(=O)N(CC)Cc3ccccc3)c2)cc1,6.09%
24,CCOC(=O)c1scc(-c2ccc(C)cc2)c1S(=O)(=O)N1CCN(c2ccccc2F)CC1,-10.4%

row,Compound,inhibition
1,O=C(CCC1N=C2c3ccccc3N=C(SCc3cccc(F)c3)N2C1=O)NCc1cccs1 (stereo unspecified),11.3%
2,Cc1ccc(Cl)cc1N1CCN(C(=O)CCNS(=O)(=O)c2ccc3c(c2)CCN3C(=O)C2CC2)CC1,-2.85%
3,Cc1ccc(NC(=O)NCc2cccn2Cc2ccccc2)c(C)c1,8.66%
4,CCCCCSc1ncnc2c1sc1nc(N3CCOCC3)c3c(c12)CCCC3,1.92%
5,CCOc1ccc(N2CC(c3nc4ccccc4n3Cc3ccccc3F)CC2=O)cc1 (stereo unspecified),-2.78%
6,COc1ccc(-c2nnc(SCC(=O)NC3CCCC3)nc2-c2ccc(OC)c(OC)c2)cc1OC,23.6%
7,COc1cccc(OC)c1C(=O)Nc1cccc(-c2cn3ccsc3n2)c1,-4.76%
8,O=C(NCc1ccccc1)C1CCN(S(=O)(=O)c2ccc3c(c2)CCCN3C(=O)C2CCC2)CC1,10%
9,Cc1ccc(N2CC(NC(=O)c3ccc(S(=O)(=O)N4CCCC4)cc3)CC2=O)cc1C (stereo unspecified),22.9%
10,Cc1cc(C)cc(-n2ccn(CC(=O)Nc3cc(C)ccc3C)c(=O)c2=O)c1,-4.31%
11,CCn1cc(C(=O)NCCCN2CCCC(C)C2)c(=O)c2cc(S(=O)(=O)N(C)C3CCCCC3)ccc21 (stereo unspecified),-8.66%
12,CCOC(=O)c1c(S(=O)(=O)N2CCCC(C(=O)NCc3cccc(OC)c3)C2)c(C)n(C)c1C (stereo unspecified),-9.55%
13,Cc1ccc(-c2cn(-c3cccc(Cl)c3)c(S(=O)(=O)CC(=O)Nc3cccc(C)c3)n2)cc1,-5.74%
14,Cc1cccc(CS(=O)(=O)Cc2ccc(C(=O)NCCc3ccccc3)o2)c1,24.5%
15,COc1ccc(CCNc2nc(-c3ccc(OC)c(OC)c3)cc(C(F)(F)F)n2)cc1OC,-5.42%
16,OC(CNCC1COc2ccccc2O1)COc1ccccc1F (stereo unspecified),active: 95.6%
17,CCc1ccccc1NC(=O)CN1C(=O)c2ccccc2Sc2ncccc21,2.75%
18,NC(=O)C1(N2CCCCC2)CCN(C(=O)Nc2ccc(F)cc2)CC1,-10.1%
19,CCCNC(=O)c1ccc2c(c1)sc1nc(-c3ccc(C)cc3)cn12,-2.6%
20,O=C(CNC(=O)c1ccccc1)OCc1cc(=O)n2ccsc2n1,3.55%
21,Cc1ccc(C)c(N2CCN(C(=O)C3CCCN(Cc4nc(-c5cccc(Cl)c5)oc4C)C3)CC2)c1 (stereo unspecified),2.23%
22,CC1CCn2c(nc3cc(C(=O)NCc4ccccc4)ccc32)C1 (stereo unspecified),-6.49%
23,CC(=O)c1ccc(NC(=O)c2cc(S(=O)(=O)N3CCCCCC3)cn2C)cc1,-4.15%
24,Cc1ccc(NC(=O)CCCc2nnc3n(C)c(=O)c4sccc4n23)cc1F,-14.1%

row,Compound,inhibition
1,COc1ccc(-c2nc3c(c(SCC(=O)Nc4ccccc4F)n2)Cc2cc(C)ccc2O3)cc1,-6.9%
2,O=C(NCc1ccc(F)cc1)c1ccc2nc(N3CCCCC3)sc2c1,-6.74%
3,Cc1ccc(NC(=O)CCC(=O)N2Cc3ccccc3Oc3ncccc32)cc1F,5.36%
4,Cc1cccc(Cn2c(=O)n(CCC(=O)NCCc3ccc(Cl)cc3)c(=O)c3sccc32)c1,-25.6%
5,CCOc1ccc(NC(=O)c2ccc3c(c2)CCN3S(=O)(=O)c2ccc(Cl)cc2)cc1,0.178%
6,Cc1cc(-c2ccc(C)c(S(=O)(=O)NCC3CCN(Cc4ccc(F)cc4)CC3)c2)on1,15.1%
7,O=C(NCC(c1ccc2c(c1)OCO2)N1CCOCC1)C(=O)Nc1cccc(Cl)c1 (stereo unspecified),-15.4%
8,COc1ccc(OC)c(CNC(=O)c2nn(C)c3c2CSc2ccccc2-3)c1,5.8%
9,Fc1cccc(Cl)c1Cn1c(-c2cccs2)nc2ccccc21,-3.12%
10,CCCn1cc(S(=O)(=O)c2ccc(CC)cc2)c(=O)c2cc(F)c(N(CC)CC)cc21,8.11%
11,Cn1c(=O)c2c(-c3ccccc3)n3c(c2n(C)c1=O)C(c1ccco1)Nc1ccccc1-3 (stereo unspecified),-7.62%
12,COc1ccc(Cl)cc1CNCCSc1nnnn1C,-14.2%
13,COc1ccc(C(=O)Nc2nc3c(s2)CCCC3)cc1Cl,24.3%
14,CCOc1ccc(CNC(=O)c2cc(=O)[nH]c3ccc(S(=O)(=O)N4CCCC4)cc23)cc1,-3.52%
15,Cc1cccc(N2CCN(C(=O)c3ccc4c(c3)N(Cc3cccc(Cl)c3)C(=O)c3ccccc3S4=O)CC2C)c1 (stereo unspecified),8.16%
16,Cc1cc(C)cc(NC(=O)CCCn2c3ccccc3c(=O)c3ccccc32)c1,5.22%
17,Cc1cc(Cl)ccc1OCC(O)CN1C(C)CCCC1C (stereo unspecified),active: 31.2%
18,CCc1cc(=O)oc2cc(C)cc(OCC(=O)N3CCC(C(=O)NC(C)C)(c4ccccc4)CC3)c12,active: 53.1%
19,CC(=O)c1ccc(N2CCN(C(=O)CCCCn3c(=O)[nH]c4ccccc4c3=O)CC2)cc1,-10.3%
20,Cc1cccc(C(=O)N2CCc3cc(CNC(=O)c4ccnn4C)ccc32)c1,-15.1%
21,CCOc1ccccc1NC(=O)Cc1coc2c(C)c(C)ccc12,20.7%
22,COc1ccc(NC(=O)c2c(C(=O)Nc3ccccc3)sc3nc(C)cc(=O)n23)cc1,6.06%
23,CCOc1ccccc1NC(=O)CN1C(=O)COc2ccc(S(=O)(=O)N3CCCCCC3)cc21,2.74%
24,N#C/C(=C\c1ccc(F)cc1)C(=O)NCC1CCCO1 (stereo unspecified),18.3%
